Measured values published in US9920371B2, “Screening method” (Medvet Science Pty. Ltd., priority 2011, dated 2018).

Tested on: 14-3-3ζ^−/− mice and wild-type controls
Assay: Psychotropic drug induced PPI test (prepulse inhibition of acoustic startle)
Assay type: in vivo, mouse
Settings: prepulse 16 dB over 70 dB baseline, ISI 100 msec

SMILES: CN1CCc2cccc3c2[C@H]1Cc1ccc(O)c(O)c1-3 [apomorphine]
- effect on PPI (14-3-3ζ^−/− (14-3-3ζ^062−/−) mice, listed as APO): induces further PPI defects
- effect on PPI (wild-type (14-3-3ζ^062+/+) mice): induce PPI defects
